Drawing on article PMC7902839, this text covers binding for three molecules.

Sequences of proteins named here, by UniProt entry; tags and fusion partners are left off. A change or cut given only in a name is not applied to a line headed by its entry. Residues count along the entry.
UniProt Q9DC11, residues 31-455: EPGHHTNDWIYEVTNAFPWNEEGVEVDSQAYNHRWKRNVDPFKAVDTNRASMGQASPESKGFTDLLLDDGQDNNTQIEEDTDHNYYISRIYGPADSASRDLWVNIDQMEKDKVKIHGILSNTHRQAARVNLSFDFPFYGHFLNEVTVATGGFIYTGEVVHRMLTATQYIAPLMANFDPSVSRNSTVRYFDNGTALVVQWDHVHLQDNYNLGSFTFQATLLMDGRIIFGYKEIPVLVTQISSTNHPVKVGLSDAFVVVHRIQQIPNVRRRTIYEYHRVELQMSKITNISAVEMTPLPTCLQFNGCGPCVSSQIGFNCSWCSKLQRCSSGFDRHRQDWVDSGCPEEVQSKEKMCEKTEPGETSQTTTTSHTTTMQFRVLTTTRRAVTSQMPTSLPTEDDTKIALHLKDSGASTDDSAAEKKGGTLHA
UniProt Q6UX71, residues 31-454: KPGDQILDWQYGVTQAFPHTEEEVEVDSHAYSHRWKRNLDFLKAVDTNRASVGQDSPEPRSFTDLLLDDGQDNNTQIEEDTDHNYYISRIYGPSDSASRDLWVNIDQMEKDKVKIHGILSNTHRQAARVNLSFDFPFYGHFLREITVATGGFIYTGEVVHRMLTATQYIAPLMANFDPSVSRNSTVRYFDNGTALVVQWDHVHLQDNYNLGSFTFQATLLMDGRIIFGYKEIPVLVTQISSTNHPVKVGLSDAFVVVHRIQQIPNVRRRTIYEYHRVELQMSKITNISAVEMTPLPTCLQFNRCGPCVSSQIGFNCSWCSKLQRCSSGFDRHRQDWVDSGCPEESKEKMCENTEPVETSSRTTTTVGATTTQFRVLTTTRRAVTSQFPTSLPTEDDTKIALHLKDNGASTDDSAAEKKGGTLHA

Assay [1] has as its target T1, human ADGRD1 (Adhesion G-protein coupled receptor D1) ectodomain (human) (UniProt Q6QNK2).
T1 sequence (chain, biotin (enzymatic, co-transfected secreted BirA; bait form only)): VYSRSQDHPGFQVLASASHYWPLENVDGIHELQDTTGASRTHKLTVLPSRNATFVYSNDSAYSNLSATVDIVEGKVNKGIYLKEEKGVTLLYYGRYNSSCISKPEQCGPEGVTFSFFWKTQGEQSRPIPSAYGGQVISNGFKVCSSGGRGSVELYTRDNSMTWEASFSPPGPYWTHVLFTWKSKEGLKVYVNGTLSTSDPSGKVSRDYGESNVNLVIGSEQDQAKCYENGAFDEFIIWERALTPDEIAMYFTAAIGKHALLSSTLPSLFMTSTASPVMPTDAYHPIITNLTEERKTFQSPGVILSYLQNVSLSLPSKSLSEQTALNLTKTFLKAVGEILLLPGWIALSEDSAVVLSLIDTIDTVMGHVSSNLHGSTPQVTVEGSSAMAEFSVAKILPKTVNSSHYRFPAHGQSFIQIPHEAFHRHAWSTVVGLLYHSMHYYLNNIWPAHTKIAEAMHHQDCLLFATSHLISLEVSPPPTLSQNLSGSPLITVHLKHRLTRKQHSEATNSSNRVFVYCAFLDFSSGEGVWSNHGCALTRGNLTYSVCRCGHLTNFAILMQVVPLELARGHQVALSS
Nature of the assay: AVEXIS; biotinylated monomeric baits (either purified or dialysed against PBS) immobilised on streptavidin-coated 96-well plates; pentameric beta-lactamase preys incubated one hour; washes in PBS/0.1% Tween-20; nitrocefin absorbance at 485 nm.

Assay [2] deals with mouse Plxdc2 ectodomain (mouse) (UniProt Q9DC11). Described as above.
For assay [3], the target named is human PLXDC2 (Plexin Domain-Containing Protein 2) ectodomain (human) (UniProt Q6UX71). The assay is described as above.
Assay [4] addresses T2, human MRC1 ectodomain fused to human Fc (member of the single-transmembrane receptor library) (human) (UniProt P22897).
T2 sequence: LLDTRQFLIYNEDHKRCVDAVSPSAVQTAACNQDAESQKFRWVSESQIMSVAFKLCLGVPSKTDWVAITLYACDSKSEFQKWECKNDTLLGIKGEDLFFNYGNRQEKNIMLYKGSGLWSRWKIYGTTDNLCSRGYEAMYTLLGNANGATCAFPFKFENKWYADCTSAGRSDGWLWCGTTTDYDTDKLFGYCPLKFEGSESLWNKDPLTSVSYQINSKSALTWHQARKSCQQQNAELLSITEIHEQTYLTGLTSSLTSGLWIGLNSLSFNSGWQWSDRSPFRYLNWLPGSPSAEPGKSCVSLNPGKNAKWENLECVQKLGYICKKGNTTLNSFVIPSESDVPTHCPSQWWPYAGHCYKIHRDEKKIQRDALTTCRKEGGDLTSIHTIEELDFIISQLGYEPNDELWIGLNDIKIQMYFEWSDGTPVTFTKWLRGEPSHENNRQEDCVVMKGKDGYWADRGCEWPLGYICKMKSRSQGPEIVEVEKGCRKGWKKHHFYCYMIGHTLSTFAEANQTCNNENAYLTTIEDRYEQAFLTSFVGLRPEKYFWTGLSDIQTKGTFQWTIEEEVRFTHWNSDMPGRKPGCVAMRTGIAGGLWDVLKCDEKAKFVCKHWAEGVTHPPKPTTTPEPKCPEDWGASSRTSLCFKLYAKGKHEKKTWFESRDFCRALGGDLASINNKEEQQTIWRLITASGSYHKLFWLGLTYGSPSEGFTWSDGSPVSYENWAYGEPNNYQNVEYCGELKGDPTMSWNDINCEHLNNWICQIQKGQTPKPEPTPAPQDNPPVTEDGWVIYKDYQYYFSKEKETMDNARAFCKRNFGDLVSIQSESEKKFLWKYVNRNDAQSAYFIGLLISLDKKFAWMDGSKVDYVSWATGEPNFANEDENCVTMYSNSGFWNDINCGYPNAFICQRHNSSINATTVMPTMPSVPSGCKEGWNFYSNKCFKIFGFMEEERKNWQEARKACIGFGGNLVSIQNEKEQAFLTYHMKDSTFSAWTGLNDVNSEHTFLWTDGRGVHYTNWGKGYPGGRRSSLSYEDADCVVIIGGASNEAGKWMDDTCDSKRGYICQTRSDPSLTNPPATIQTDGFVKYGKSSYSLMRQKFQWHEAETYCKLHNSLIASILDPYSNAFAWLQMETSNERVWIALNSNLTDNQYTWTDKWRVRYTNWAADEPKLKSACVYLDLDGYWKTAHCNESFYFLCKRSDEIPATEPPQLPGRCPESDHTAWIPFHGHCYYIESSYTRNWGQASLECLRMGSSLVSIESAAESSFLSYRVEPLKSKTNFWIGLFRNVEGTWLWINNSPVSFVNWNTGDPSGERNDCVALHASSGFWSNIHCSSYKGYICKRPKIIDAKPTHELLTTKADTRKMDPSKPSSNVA
Nature of the assay: AVEXIS (automated 384-well Cell Surface Receptor Interaction screen); Fc-tagged receptor ectodomains from conditioned media captured on protein A-coated 384-well plates; beta-lactamase-tagged pentameric ADGRD1 probe 1 h at room temperature; PBS with Ca2+ and Mg2+; nitrocefin hydrolysis read at 485 nm, Z-scores.

For assay [5], the target named is human PLXDC2 ectodomain fused to human Fc (member of the single-transmembrane receptor library) (human) (UniProt Q6UX71). The assay is described as above.

These are yes or no findings as the source states them, for the method shown. Some binding calls cover weakened binding; strength is not graded here. For some assays here: Sequences can lack the tags named with a protein.

For the molecule “human PLXDC2 (Plexin Domain-Containing Protein 2) ectodomain (from UniProt Q6UX71-1 31-454) (domain or fragment)”, the binding entry in assay [1] is “binds”.

B1: pentraxin (PTX) domain of Adgrd1, truncated ectodomain (domain or fragment, UniProt Q80T32 111-305)
chain: KGVTFLYYGTYKSSCISNPAQCGPEGVTFSFFWKTQGDQTRPAPYAYGGQVVSDGFKVCSSGGKGSVELYTRDNSMTWKATFNPPGPYWTHVLFTWKSKEGLKVYVNGTLSTSDPSGKVSHTYGDPHVNLVIGSEQDQTKRYENGAFDEFIIWERALTPDEIKMYFTAAIGKHALLSSTPPAMPTAHTVIPTDAY
For B1, in assay [2], the binding entry was “binds”.

B2: human ADGRD1 (Adhesion G-protein coupled receptor D1) ectodomain (domain or fragment, UniProt Q6QNK2-4 26-600)
chain: T1 sequence (chain, biotin (enzymatic, co-transfected secreted BirA; bait form only))
modifications: biotin (enzymatic, co-transfected secreted BirA; bait form only)
B2: the binding entry in assay [3] was “binds”; in assay [4], “no binding”; in assay [5], “binds”.
